Assay results reported in PubChem BioAssay AID1159614 (National Center for Advancing Translational Sciences (NCATS), 2016).
The campaign covered roughly 45,000 compounds. About 65 (0.1%) were called active. The call rests on the fitted dose curve; in most records, active means well fitted activation curve with a large enough effect; inconclusive means small, poorly fitted or top-dose-only effect; inactive means no such curve, though single readings can be large or run the other way. Some of the results follow.

The compounds below were run against Galactocerebrosidase (Homo sapiens) (UniProt P54803) (assay: A Novel Cell-Based Assay to Identify Small Molecules for B -Galactocerebrosidase). Settings: 145M-Twi-hGALC-G270D cells, HMU-beta-Gal fluorescence, 48 h; series mostly up to 57.5 µM; activation: at the top concentration.
UniProt P54803, sequence (P54803 whole entry, looked up): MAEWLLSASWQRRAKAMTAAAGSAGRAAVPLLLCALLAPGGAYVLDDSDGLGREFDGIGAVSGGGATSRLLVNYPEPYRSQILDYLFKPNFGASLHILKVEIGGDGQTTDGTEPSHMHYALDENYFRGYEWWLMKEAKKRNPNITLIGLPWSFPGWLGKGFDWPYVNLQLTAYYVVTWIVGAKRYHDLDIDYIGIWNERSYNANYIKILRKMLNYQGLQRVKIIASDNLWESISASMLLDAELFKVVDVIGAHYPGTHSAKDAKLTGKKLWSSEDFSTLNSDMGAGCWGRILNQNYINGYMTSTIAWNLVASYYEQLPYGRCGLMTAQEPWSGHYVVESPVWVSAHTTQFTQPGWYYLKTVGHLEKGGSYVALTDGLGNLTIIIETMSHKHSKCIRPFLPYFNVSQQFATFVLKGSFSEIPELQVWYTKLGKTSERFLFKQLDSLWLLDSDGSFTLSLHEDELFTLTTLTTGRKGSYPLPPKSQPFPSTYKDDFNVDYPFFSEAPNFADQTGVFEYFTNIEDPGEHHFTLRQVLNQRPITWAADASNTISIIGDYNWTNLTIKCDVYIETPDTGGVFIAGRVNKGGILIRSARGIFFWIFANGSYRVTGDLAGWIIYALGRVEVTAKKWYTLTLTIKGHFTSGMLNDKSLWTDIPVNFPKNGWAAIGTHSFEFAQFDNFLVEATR
Procedure, shortened: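 qHTS, 1536-well; 145M-Twi-hGALC-G270D cells (WT line also made) in DMEM/F12 + 10% FBS; compound incubation on live cells; HMU-β-gal 0.1 mM final, pH 5.2, NaTC; carbonate stop; fluorescence increase = enhanced residual activity.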
Further: 0% is about no effect; nearly all actives have a fitted effect of over 65% in size.

activation, inactive:
COc1ccccc1/C=C(\C#N)C(=O)NCC1CCCO1 (centres undefined) 18.1%
COc1cccc(CNC(=O)c2ccc(CN3CC(=O)N4CCCCC4C3=O)cc2)c1 (centres undefined) -7.29%
CCn1c(C(=O)NCc2ccccc2)cc2sc(Cl)cc21 -20.6%
Cc1ccc(CNC(=O)c2ccc(CSCc3c(F)cccc3Cl)o2)cc1 -3.59%
CCOc1ccc(/C=C/c2nc(C#N)c(N3CCCCCC3)o2)cc1 -5.18%
COc1ccccc1NC(=O)N1CCOc2ccccc21 -17.4%
Cc1cc(C)n2nc(CNS(=O)(=O)c3ccc(F)cc3)nc2n1 3.24%
COc1ccccc1NC(=O)Cn1c(=O)n(Cc2nc(C)no2)c(=O)c2cc3c(cc21)OCO3 -6.01%
CCc1ccc(NC(=O)c2cc(CN3CCOCC3)on2)cc1 -15%
CCOc1ccccc1NC(=O)CCS(=O)(=O)c1ccc(OC)cc1 -2.79%
CCOC(=O)c1[nH]c(C)c(C(=O)NCCc2ccccc2)c1C 5.65%
CN(c1ccc(Cl)cc1)S(=O)(=O)c1nnc(NC(=O)c2ccco2)s1 -6.32%
O=C(CCn1c(=O)c2ccccc2n(Cc2ccc(Cl)cc2)c1=O)NCc1ccc2c(c1)OCO2 1.68%
CCOc1ccc(-n2c(SCC(=O)N3CCCc4ccccc43)nc3c([nH]c4ccccc43)c2=O)cc1 -13.6%
Cc1cccc(-n2ccnc2SCC(=O)Nc2cc(C(F)(F)F)ccc2Cl)c1 -39.3%
CCCCN(C)CC(O)Cn1cc(/C=C/C(=O)c2ccc(OCC)cc2)c2ccccc21 (centres undefined) -13%
CCCCC(=O)Nc1cccc(-c2nc3ccccc3s2)c1 -14.3%
COc1ccc(CCNC(=O)C(=O)Nc2ccc(C)c(C)c2)cc1OC -22.9%
CCn1cc(C(=O)NCc2ccccc2Cl)c(=O)c2cc(S(=O)(=O)N3CCOCC3)ccc21 -8.07%
C#CC(C)(CC)OC(=O)c1ccccc1C(=O)O (centres undefined) -20.3%
C[C@@H]1C[C@H]2[C@@H]3CCC4=CC(=O)C=C[C@]4(C)[C@@]3(F)[C@@H](O)C[C@]2(C)[C@H]1C(=O)CO -11.2%
CC(C)c1ccc(Nc2c(-c3ccsc3)nc3ccc(Cl)cn23)cc1 -13.6%
Cc1ccc(C)c(Oc2c(C(F)(F)F)oc3c(CN4CCN(C)CC4)c(O)ccc3c2=O)c1 -12.2%
Cc1ccc2nc(NCCc3ccc(Cl)cc3)c3nncn3c2c1 -5.5%
COc1ccc(C)cc1NC(=O)Cc1ccc(NC(=O)N2CCCCc3ccccc32)cc1 -0.783%
CCOC(=O)C1=C(CN(C)Cc2ccccc2)NC(=O)NC1c1ccc(OC(C)C)cc1 (centres undefined) -13.7%
O=C(Nc1ccccc1[N+](=O)[O-])c1csnn1 -9.48%
CCC(=O)C1=C(c2ccccc2)N(C(=O)CC)n2c(nnc2C2CCCCC2)S1 -21.2%
O=C(CSc1nc(-c2cccs2)cc(C(F)(F)F)n1)Nc1ccccc1Cl -7.45%
O=C(Nc1ccc2nc(SCC(=O)N3CCc4ccccc43)sc2c1)c1ccc(Cl)cc1 -12.2%
Cc1ccc(CNC(=O)c2ccc(NC(=O)c3nsc4ccccc34)cc2)cc1 -28%
COC(=O)c1c(SC)nc2ccccc2c1OCc1cc(C)ccc1C -11.7%
CCCOc1ccc(CNC(=O)c2cc3oc4ccccc4c3n2C)cc1 -4.8%
CCOc1ccccc1NC(=O)C(=O)NCC(c1cccnc1)N1CCN(c2ccccc2)CC1 (centres undefined) -14%
Cc1ccc(NC(=O)CN2C(=O)C(c3ccc(F)cc3)=NC2(C)C)c(C)c1 -13.2%
Cc1cccc(C(=O)Nc2sc3c(c2C(=O)Nc2ccccc2)CCC3)c1 7.04%
CN(C)c1ccc(CNS(=O)(=O)c2csc(C(N)=O)c2)cc1 24%
CCn1cc2nc(SCc3ccccc3)n(Cc3ccc(C)cc3)c(=O)c2n1 -12.6%
COc1cccc(NC(=O)Nc2cc(-c3cn4cccnc4n3)ccc2OC)c1 -7.8%
O=C(NCC(c1ccco1)S(=O)(=O)c1cccs1)c1ccc(C(F)(F)F)cc1 (centres undefined) -12.6%
CCOc1cc(Cl)c(S(=O)(=O)n2cc(C)nc2CC)cc1Cl -26%
CCN(CCCCOC(=O)c1ccc(OC)c(OC)c1)C(C)Cc1ccc(OC)cc1 (centres undefined) -5.06%
COc1ccc(C)cc1NC(=O)c1cc(S(=O)(=O)NCCC2=CCCCC2)ccc1F -10.8%
Clc1ccc(-c2noc3ncnc(N4CCCCC4)c23)cc1 -4.99%
Cc1ccccc1NC(=O)CSc1nc2ccc(NC(=O)c3ccco3)cc2s1 -34.4%
Cc1cc(C(C)(C)C)cc(C)c1CC1=NCCN1 -7.21%
COc1ccc(N2CC(C(=O)Nc3ccccc3-c3nc(-c4ccc(C)cc4)no3)CC2=O)cc1 (centres undefined) -9.62%
COc1ccc(C(=O)NCCc2nc3ccccc3[nH]2)cc1 3.83%
Cn1c(=O)c2c(nc(NCc3ccccc3)n2Cc2ccc(Cl)c(Cl)c2)n(C)c1=O -5.78%
CCCSc1nc2c(c(=O)[nH]1)C(c1ccc(O)c(OCC)c1)CC(=O)N2 (centres undefined) -4.32%
COc1ccc(-c2noc(CSc3nnc(C)n3-c3ccc(C)cc3)n2)cc1 -14.6%
COc1cccc(NC(=O)c2oc3ccc(S(=O)(=O)N4CCC5(CC4)OCCO5)cc3c2C)c1 -4.46%
Cc1ccccc1CSCc1ccc(C(=O)NCCc2ccccc2)o1 -13.7%
CC(C)(C)c1ccc(OCc2cc(=O)n3c4c(sc3n2)CCCC4)cc1 -11.8%
CCOc1ccc(C(CC(=O)Nc2ccc(C(=O)OC)cc2)N2Cc3ccccc3C2=O)cc1OC (centres undefined) -23.7%
Oc1c(C(c2ccc(Cl)cc2Cl)N2CCCC2)sc2nc(-c3ccco3)nn12 (centres undefined) 2.03%
CCOc1ccc(CCNC(=O)CCSCc2cccc(Cl)c2)cc1OCC 2.58%
COc1ccccc1NC(=O)CSc1nc(-c2cccc(Cl)c2)nc2c1Cc1c(CO)cnc(C)c1O2 -1.28%
Cc1ccc(CCNC(=O)C2CCCN(S(=O)(=O)c3ccc4c(c3)oc(=O)n4C)C2)cc1 (centres undefined) -10.1%
O=C(COc1ccc(F)cc1)OCc1cc(=O)n2nc(C3CC3)sc2n1 -8.4%
CCc1ccc(-n2nc(C)c3c(C)cc(=O)n(CC(=O)N(CC)Cc4ccccc4)c32)cc1 -12.5%
CCc1ccc(C(=O)c2cn(Cc3ccccc3)c3cc(OC)c(OC)cc3c2=O)cc1 -18.7%
CN(C)c1ccc(NC(=O)C2(c3cccs3)CCOCC2)cc1 -26.6%
O=C(Nc1cc(Cl)ccc1O)c1cc2nc(-c3ccc4c(c3)OCO4)cc(C(F)(F)F)n2n1 -14%
